Source: the antibiotic and cytotoxicity screens of Wong et al. (2023)
The other results are listed elsewhere or left out.

Legend:
HSkMC = human skeletal muscle cells; assay: cytotoxicity call (relative viability < 0.9); conditions: 10 µM
HepG2 = assay: cytotoxicity call (relative viability < 0.9); conditions: 10 µM
S. aureus RN4220 = assay: growth inhibition call (relative growth <= 0.2); conditions: 50 µM

| Compound | cytotoxicity call (HSkMC) | cytotoxicity call (HepG2) | growth inhibition call (S. aureus RN4220) |
| --- | --- | --- | --- |
| C[C@@H]1CCCCO[C@H](CN(C)C(=O)Nc2ccc(C(F)(F)F)cc2)[C@@H](C)CN([C@@H](C)CO)C(=O)c2cc(NC(=O)c3ccccc3)ccc2O1 | inactive | inactive | inactive |
| CN(C)CCOc1ccc(C(=C(CCCl)c2ccccc2)c2ccccc2)cc1.O=C(O)CC(O)(CC(=O)O)C(=O)O | active | active | active |
| COCC(=O)N1C[C@]2(CN(C2)C(=O)CN2CCOCC2)c2c([nH]c3cc(ccc23)OC)[C@H]1CO | inactive | inactive | inactive |
| O=C1O[C@H](c2ccccc2)[C@H](c2ccccc2)N2[C@H]1[C@@H](C(=O)N1CCN(c3ncccn3)CC1)[C@]1(C(=O)Nc3ccc(C#CC4(O)CCCCCC4)cc31)[C@H]2c1ccc(O)cc1 | inactive | inactive | inactive |
| C[C@@H]1CN([C@H](C)CO)C(=O)c2cc(C#C[C@@H](C)O)cnc2O[C@@H]1CN(C)Cc1cncnc1 | inactive | inactive | inactive |
| NCc1cc(-c2ccccc2Cl)no1 | inactive | inactive | inactive |
| Cc1noc(C)c1NC(=O)N(C)C[C@H]1Oc2ccc(NC(=O)Nc3cccc4ccccc34)cc2CC(=O)N([C@H](C)CO)C[C@@H]1C | inactive | inactive | inactive |
| CC(C)C#Cc1cnc2c(c1)C(=O)N([C@H](C)CO)C[C@@H](C)[C@H](CN(C)C(=O)c1ccc3c(c1)OCO3)O2 | inactive | inactive | inactive |
| CN(C)CC(=O)N[C@@H]1CC[C@H](CCNC(=O)C2CC2)O[C@H]1CO | inactive | inactive | inactive |
| CCOC(=O)c1cn(C[C@H](Cc2ccccc2)NC(=O)N[C@H](CO)CCc2oc(C(C)=O)c(C(=O)OC)c2C(=O)OC)nn1 | inactive | inactive | inactive |
| CC(C)NC(=O)Nc1ccc2c(c1)C(=O)N([C@@H](C)CO)C[C@H](C)[C@H](CN(C)Cc1ccc(Cl)c(Cl)c1)OCCCC[C@@H](C)O2 | inactive | inactive | inactive |
| O=C(OCC1OC(OC(=O)c2cc(O)c(O)c(OC(=O)c3cc(O)c(O)c(O)c3)c2)C(OC(=O)c2cc(O)c(O)c(OC(=O)c3cc(O)c(O)c(O)c3)c2)C(OC(=O)c2cc(O)c(O)c(OC(=O)c3cc(O)c(O)c(O)c3)c2)C1OC(=O)c1cc(O)c(O)c(OC(=O)c2cc(O)c(O)c(O)c2)c1)c1cc(O)c(O)c(OC(=O)c2cc(O)c(O)c(O)c2)c1 (stereo unspecified) | inactive | active | inactive |
| C[C@@H]1CN([C@@H](C)CO)S(=O)(=O)c2ccc(C#Cc3cccc(F)c3)cc2O[C@H]1CN(C)S(=O)(=O)c1ccccc1F | inactive | inactive | inactive |
| C[C@H]1CN([C@@H](C)CO)C(=O)Cc2cc(NS(=O)(=O)c3ccc(Cl)cc3)ccc2O[C@@H]1CN(C)C | inactive | active | inactive |
| C[C@H]1CN([C@@H](C)CO)C(=O)Cc2cc(NC(=O)c3ccncc3)ccc2O[C@H]1CN(C)S(=O)(=O)c1cn(C)cn1 | inactive | inactive | inactive |
| C[C@H](CO)N1C[C@H](C)[C@@H](CN(C)Cc2ccc(Cl)c(Cl)c2)Oc2c(NS(=O)(=O)c3ccc(Cl)cc3)cccc2C1=O | inactive | inactive | inactive |
| CCOC(=O)C[C@H]1CCCNC1 | inactive | inactive | inactive |
| CC(C)NC(=O)Nc1ccc2c(c1)C(=O)N([C@H](C)CO)C[C@H](C)[C@@H](CN(C)C(=O)Nc1ccc3c(c1)OCO3)O2 | inactive | inactive | inactive |
| Cc1ccc(-c2ccc3c(c2)O[C@@H](CN(C)Cc2cncnc2)[C@H](C)CN([C@@H](C)CO)S3(=O)=O)cc1 | inactive | inactive | inactive |
| O=C(NO)c1cn(-c2cccc(C(=O)N3CCC4(CC3)C(=O)NCN4c3ccccc3)c2)nn1 | active | active | active |
| CO[C@@H]1CN(C)C(=O)c2cc(NC(=O)CC(F)(F)F)ccc2OC[C@H](C)N(C(=O)C2CCOCC2)C[C@@H]1C | inactive | inactive | inactive |
| CNC[C@@H]1Oc2ccc(NC(=O)Cn3cnnn3)cc2CC(=O)N([C@H](C)CO)C[C@H]1C | inactive | inactive | inactive |
| C=CCNC(=O)[C@H]1[C@@H]2C(=O)O[C@@H](c3ccccc3)[C@@H](c3ccccc3)N2[C@@H](c2ccc(OCCO)cc2)[C@]12C(=O)Nc1ccc(C#Cc3ccc(OC)cc3)cc12 | inactive | inactive | inactive |
| CC(C)NC(=O)Nc1ccc2c(c1)C(=O)N([C@H](C)CO)C[C@H](C)[C@H](CN(C)Cc1ccccc1)OCCCC[C@@H](C)O2 | inactive | inactive | inactive |
| Cc1ccc(S(=O)(=O)N(C)C[C@H]2Oc3c(NS(=O)(=O)c4ccc(F)cc4)cccc3C(=O)N([C@@H](C)CO)C[C@H]2C)cc1 | inactive | inactive | inactive |
| Cc1noc(C)c1S(=O)(=O)N(C)C[C@@H]1Oc2ccc(NS(=O)(=O)c3ccc(F)cc3)cc2C(=O)N([C@@H](C)CO)C[C@@H]1C | inactive | inactive | inactive |

| Compound | cytotoxicity call (HSkMC) | cytotoxicity call (HepG2) | growth inhibition call (S. aureus RN4220) |
| --- | --- | --- | --- |
| C[C@@H]1CN([C@@H](C)CO)C(=O)c2cc(NC(=O)NC3CCCCC3)ccc2O[C@@H]1CN(C)Cc1ccc(C(=O)Nc2ccccc2N)cc1 | inactive | inactive | inactive |
| O=C(C[C@@H]1C[C@H]2c3cc(NC(=O)NC4CCCC4)ccc3O[C@H]2[C@@H](CO)O1)NCCN1CCCCC1 | inactive | inactive | inactive |
| COc1ccc(NC(=O)Nc2ccc3c(c2)C(=O)N([C@H](C)CO)C[C@@H](C)[C@@H](CN(C)Cc2ccc(C(F)(F)F)cc2)OCCCC[C@@H](C)O3)cc1 | active | active | inactive |
| Cc1ccc(S(=O)(=O)Nc2ccc3c(c2)C(=O)N([C@H](C)CO)C[C@@H](C)[C@H](CN(C)S(=O)(=O)c2ccc(Cl)cc2)OCCCC[C@@H](C)O3)cc1 | inactive | active | inactive |
| COc1ccc(S(=O)(=O)Nc2ccc3c(c2)C(=O)N([C@@H](C)CO)C[C@H](C)[C@@H](CN(C)C(=O)C2CCCCC2)OCCCC[C@@H](C)O3)cc1 | inactive | inactive | inactive |
| CC(C)(O)c1cn(-c2ccc(-c3cccc(S(C)(=O)=O)c3)cc2)c(C(C)(C)c2ccccc2Cl)n1 | inactive | inactive | inactive |
| CC(C)(C)[C@H]1C=C(C(=O)N2CCCCCCC2)O[C@@H](OCc2ccc(COC(=O)NCCCCCC(=O)NO)cc2)C1 | inactive | inactive | inactive |
| COCCNC(=O)C[C@@H]1CC[C@@H]2[C@H](COC[C@@H](O)CN2C(=O)Nc2ccccc2OC)O1 | inactive | inactive | inactive |
| C[C@@H]1CN([C@@H](C)CO)S(=O)(=O)c2ccc(C#Cc3ccncc3)cc2O[C@H]1CN(C)S(=O)(=O)c1ccccc1 | inactive | active | inactive |
| Cc1noc(C)c1S(=O)(=O)N(C)C[C@@H]1Oc2c(NS(=O)(=O)c3ccccc3)cccc2C(=O)N([C@H](C)CO)C[C@@H]1C | inactive | inactive | inactive |
| COc1ccc(S(=O)(=O)N(C)C[C@@H]2Oc3c(NS(=O)(=O)c4cccs4)cccc3C(=O)N([C@@H](C)CO)C[C@@H]2C)cc1 | inactive | inactive | inactive |
| C[C@@H]1CN([C@H](C)CO)C(=O)c2cccc(NC(=O)C3CC3)c2O[C@H]1CN(C)C(=O)Nc1ccc2c(c1)OCO2 | inactive | inactive | inactive |
| C[C@@H]1CN([C@@H](C)CO)C(=O)c2cc(NS(=O)(=O)c3cn(C)cn3)ccc2O[C@@H](C)CCCCO[C@@H]1CN(C)S(=O)(=O)c1ccc(F)cc1 | inactive | inactive | inactive |
| COc1ccccc1NC(=O)Nc1ccc2c(c1)OC[C@@H](C)N(Cc1ccccc1C(=O)O)C[C@@H](C)[C@H](OC)CN(C)C2=O | inactive | inactive | inactive |
| CCCNC(=O)N1C[C@H](O)COC[C@@H]2O[C@H](CC(=O)NCc3ccncn3)CC[C@H]21 | inactive | inactive | inactive |
| CC(C)NC(=O)N(C)C[C@H]1Oc2ccc(NS(=O)(=O)c3cccs3)cc2CC(=O)N([C@@H](C)CO)C[C@@H]1C | inactive | inactive | inactive |
| C[C@@H]1CN([C@@H](C)CO)C(=O)Cc2cc(NC(=O)Nc3ccc4c(c3)OCO4)ccc2O[C@H]1CN(C)S(C)(=O)=O | inactive | inactive | inactive |
| Cc1n[nH]c(=S)[nH]c1=O | inactive | inactive | inactive |
| O=C(O)C[C@@H]1CC[C@H]2[C@@H](COC[C@H](O)CN2S(=O)(=O)c2ccc(F)cc2)O1 | inactive | inactive | inactive |
| Cc1nc2sccn2c(=O)c1CCN1CCC(=C(c2ccc(F)cc2)c2ccc(F)cc2)CC1 | inactive | inactive | inactive |
| C[C@H](CO)N1C[C@H](C)[C@@H](CN(C)C(=O)c2ccc(N3CCN(C)CC3)cc2)OCc2cn(nn2)CCCC1=O | inactive | inactive | inactive |
| C[C@@H]1CCCCO[C@@H](CN(C)C(=O)NC2CCCCC2)[C@@H](C)CN([C@@H](C)CO)C(=O)c2cc(NC(=O)NC3CCCCC3)ccc2O1 | inactive | inactive | inactive |
| O=C(C[C@H]1CC[C@H]2[C@@H](COC[C@H](O)CN2S(=O)(=O)c2ccccc2)O1)NCCN1CCCC1 | inactive | inactive | inactive |
| CO[C@H]1CN(C)C(=O)c2ccc(NS(C)(=O)=O)cc2OC[C@@H](C)N(C(=O)C2CCOCC2)C[C@H]1C | inactive | inactive | inactive |
| Cc1noc(C)c1S(=O)(=O)N(C)C[C@H]1Oc2ccc(NC(=O)Nc3ccccc3)cc2CC(=O)N([C@@H](C)CO)C[C@H]1C | inactive | inactive | inactive |
| C[C@@H]1CN([C@H](C)CO)C(=O)c2cc(NC(=O)c3ccccc3)ccc2O[C@@H](C)CCCCO[C@@H]1CN(C)S(=O)(=O)c1ccccc1 | inactive | inactive | inactive |
